Laboratory results published in PubChem BioAssay AID2546 (National Center for Advancing Translational Sciences (NCATS), 2010).
Among all 310,000 compounds or so, about 11,000 (3.5%) were called active. Inconclusive means that the source gave no clear call. Such entries were picked first, then a sample of the others. The call rests on the fitted dose curve; in most records, active means well fitted inhibition curve with a large enough effect; inconclusive means small, poorly fitted or top-dose-only effect, or effect the other way; inactive means flat fitted curve, though single readings scatter. No potency is given beside an inconclusive call; the fits are too rough.

Assay: VP16 counterscreen qHTS for inhibitors of ROR gamma transcriptional activity;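 further: Gal4-VP16 expression switched on by copper sulfate through the metallothionein promoter; nearly all actives have a fitted effect of over 50% in size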
Settings: Drosophila S2 Gal4-VP16 UAS-luciferase, luminescence, 20 h; activity, negative = inhibition: at 53.6 µM (top of the series)
On the % scale 0 is the no-effect control and ±100 the full control effect; potency means the concentration at half of the fitted maximal effect; tags describe the fitted curve by direction and shape.

SMILES | Potency | activity, negative = inhibition
CC(C)(C)NC(=O)C(c1ccncc1)N(Cc1ccco1)C(=O)c1ccc(-c2ccccc2)[nH]1 (centres undefined) | active: 17.8 µM | –
COCc1cc(C)n(CC(=O)Nc2ccc(Cl)cc2Cl)c(=O)c1C#N | – | inactive: 4.37%
Clc1cccc(-c2ccc(C=Nc3ccc(N4CCOCC4)cc3)o2)c1 | inconclusive [activator, single point] | –
O=S(=O)(NC1CCCCC1N1CCN(c2ccccc2F)CC1)c1ccccc1 (centres undefined) | – | inactive: 1.87%
COc1cccc(NC(=S)NC(=O)/C=C/c2ccc(F)cc2)c1 | inconclusive [inhibitor, partial curve, poor fit] | –
S=c1nc(SCc2ccccc2)[nH]c2ccccc12 | active: 10 µM | –
Fc1ccccc1NC(=S)NCCc1cccc(Cl)c1 | active: 10 µM | –
Cc1cccn2c(=O)c3cc(C#N)c(=O)n(CCCN4CCOCC4)c3nc12 | inconclusive [inhibitor, single point] | –
COc1ccc(NC(=O)CCNS(=O)(=O)c2ccc(Cl)c([N+](=O)[O-])c2)cc1S(N)(=O)=O | – | inactive: 19.8%
CCNC(=S)N/N=C(\C)c1ccc(Cl)s1 | active: 1.41 µM | –
Nc1c(C(=O)c2ccc(Br)cc2)oc2ccccc12 | – | inactive: -0.211%
Nc1nc(SCc2ccc(Cl)cc2Cl)nc2nc3c(cc12)CCCC3 | inconclusive [inhibitor, single point] | –
Cc1cc(C(=O)N/N=C2/CC(C)CC(C)(C)C2)c(C)o1 (centres undefined) | – | inactive: -5.95%
Cc1cc(/C=N/Nc2ccc([N+](=O)[O-])cn2)c(C)n1-c1ccccc1 | inconclusive [inhibitor, full curve] | –
O=c1c2cc(N3CCOCC3)ccc2[nH]c(=S)n1CCCN1CCN(c2ccccc2F)CC1 | inconclusive [inhibitor, single point] | –
COc1ccccc1N1CCN(C(=S)Nc2ccc3nc(N4CCOCC4)cc(C)c3c2)CC1 | inconclusive [inhibitor, full curve] | –
O=C1/C(=C/c2ccc(O)c(O)c2)SC(=S)N1Nc1ccccc1 | inconclusive [inhibitor, single point] | –
FC(F)(F)c1cc(CCN2C(=S)NC[C@@H]2Cc2ccccc2)cc(C(F)(F)F)c1 | active: 2.82 µM | –
COc1cc(N=Nc2ccccc2C(=O)O)ccc1O | inconclusive [inhibitor, single point] | –
O=C(NCCN1CCOCC1)c1ccc(/C=C2\Sc3ccccc3N(Cc3ccc(F)cc3)C2=O)cc1 | – | inactive: -28.8%
COc1ccc2o/c(=N/NC(=S)Nc3ccccc3)c(C(N)=O)cc2c1 | inconclusive [activator, full curve, poor fit] | –
CCNc1nc(NCC)nc(N/N=C/c2ccc(N(C)C)cc2)n1 | inconclusive [inhibitor, single point] | –
COC(=O)/C(=C/c1cn(C)c2ccccc12)[N+](=O)[O-] | inconclusive [inhibitor, single point] | –
COc1cc2c(cc1NC(=O)COC(=O)CNC(=O)c1ccccc1)oc1ccccc12 | active: 6.31 µM | –
COc1cccc(C(=O)Nc2nnc(-c3cccs3)o2)c1 | active: 0.794 µM | –

SMILES | Potency | activity, negative = inhibition
C/C(=N\Nc1ncc(Cl)cc1Cl)c1ccc2c(c1)OCO2 | inconclusive [inhibitor, single point] | –
CCC1OC23CCCCC2C(C#N)(C(=N)O3)C1(C#N)C#N (centres undefined) | – | inactive: -6.59%
COc1ccc(OC)c(NC(=S)NC(=O)c2ccc(Br)o2)c1 | inconclusive [inhibitor, single point] | –
CCOC(=O)C1=C(C)NC(=S)NC1c1ccc(-c2ccc(Cl)cc2)o1 (centres undefined) | active: 6.31 µM | –
CC1=NN(c2cccc(C(=O)O)c2)C(=O)/C1=C\C=C\c1ccco1 | inconclusive [inhibitor, partial curve, poor fit] | –
Cn1c(=O)c2c(nc(CN3CCCCC3)n2Cc2c(F)cccc2Cl)n(C)c1=O | – | inactive: 2.41%
CCOC(=O)C1=C(O)/C(=C/c2cc(OC)c(OC)c(OC)c2)N=C1C | inconclusive [inhibitor, single point] | –
O=C(CSC1=NCCS1)Nc1ccccc1F | inconclusive [inhibitor, single point] | –
O=c1[nH]c(Nc2ccccc2)cc2ccccc12 | – | inactive: -4.21%
O=C(Nc1ccccc1)c1ccc(-c2ccc(F)cc2)s1 | inconclusive [activator, partial curve] | –
Cc1cccc(N2C(S)=C(C#N)C(=O)NC2c2cccs2)c1 (centres undefined) | inconclusive [inhibitor, single point] | –
COc1ccc(S(=O)(=O)N2CCC(C(=O)Nc3ccccc3N3CCCCC3)CC2)cc1OC | – | inactive: -6.08%
CCS(=O)(=O)Nc1ccc(-c2nc3cccnc3s2)cc1 | – | inactive: -25.4%
NC(=O)CC1Nc2cccc3cccc(c23)NC1=O (centres undefined) | – | inactive: -10.9%
CSCCC(NC(=O)c1cc([N+](=O)[O-])cc([N+](=O)[O-])c1)c1nc2ccccc2[nH]1 (centres undefined) | active: 25.1 µM | –
COc1ccc(-c2noc(N3CCCC(C(=O)Nc4cc(F)ccc4F)C3)n2)cc1 (centres undefined) | inconclusive [inhibitor, partial curve] | –
CCCCNC(=S)NCc1ccc2[nH]c3c(c2c1)CCCC3 | active: 10 µM | –
Cn1nc(CC(=O)Nc2ccc3c(c2)OCCO3)c2ccccc2c1=O | active: 7.94 µM | –
CC1CC(C)CN(CCCNC(=O)C2CCCN(S(=O)(=O)N3CC(C)CC(C)C3)C2)C1 (centres undefined) | – | inactive: 6.9%
CC(C)Cn1c(N)c(C(=O)COC(=O)CC23CC4CC(CC(C4)C2)C3)c(=O)n(C)c1=O | inconclusive [inhibitor, single point] | –
CC(=O)c1c(C)[nH]c(C(=O)OCc2ccc([N+](=O)[O-])cc2)c1C | – | inactive: -1.64%
Brc1cc(Br)c2nc(-c3cccs3)ccc2c1 | inconclusive [inhibitor, full curve] | –
COCCNC(=O)c1noc2c1CCc1cc(OC)ccc1-2 | inconclusive [inhibitor, single point] | –
S=c1[nH]nc(-c2cc3ccccc3o2)n1Cc1ccccc1 | active: 1.78 µM | –
O=C(C1CCC1)N1CCc2cc(S(=O)(=O)NCc3cccnc3)ccc21 | inconclusive [inhibitor, single point] | –

SMILES | Potency | activity, negative = inhibition
CC(=O)N1CCc2cc(S(=O)(=O)C(C)CC(=O)Nc3ccc(OC(F)(F)F)cc3)ccc21 (centres undefined) | inconclusive [inhibitor, single point] | –
O=C(N/N=C/C=C\c1ccco1)c1cccnc1 | inconclusive [inhibitor, single point] | –
CCN1C(=O)N[C@H](c2ccc(Br)cc2)C(C(C)=O)=C1C | inconclusive [inhibitor, single point] | –
CCOc1cc(C(=O)O/N=C(\N)c2ccccn2)cc(OCC)c1OCC | inconclusive [inhibitor, single point] | –
Cc1nc2c(ccc3nc(NC(=O)Cc4ccccc4)sc32)s1 | inconclusive [inhibitor, single point] | –
Cc1nc2cc(N3CCCCC3)c(NC(=O)c3cccnc3)cc2c(=O)n1Cc1ccccc1 | inconclusive [inhibitor, single point] | –
S=C(NN=C1CCCCCC1)Nc1ccc(Cl)cc1 | inconclusive [inhibitor, full curve] | –
COc1ccccc1/C=C/C=N/NC(=O)c1cnccn1 | inconclusive [inhibitor, single point] | –
O=C(NCCc1ccccc1)c1nc(-c2cccs2)no1 | inconclusive [activator, partial curve] | –
CCOc1ccc(CCNC(=O)c2cnccn2)cc1OCC | – | inactive: -1.18%
Cc1ccc2nc(NC(=O)c3ccccn3)sc2c1 | active: 1.12 µM | –
Cc1cc(C(=O)N/N=C/c2cc(N=Nc3ccccc3)ccc2O)n[nH]1 | active: 11.2 µM | –
Cc1ccccc1NC(=O)C1c2cccc[n+]2CC(=O)N1c1c(C)cccc1C (centres undefined) | – | inactive: 1.1%
O=C(CCCOc1ccc(Cl)cc1Cl)N/N=C/c1ccc(Cl)cc1 | inconclusive [inhibitor, single point] | –
Cc1ccc(-c2cc(C(=O)NCCc3ccccn3)c3ccccc3n2)c(C)c1 | – | inactive: -3.85%
Cc1ccc(-c2nc(-c3ccncc3)no2)cc1C | inconclusive [inhibitor, single point] | –
CCCCN(C)C(=S)Nc1ccsc1C(=O)OC | inconclusive [inhibitor, partial curve] | –
COc1cccc(C2Oc3ccccc3C3CC(c4cccs4)=NN32)c1 (centres undefined) | inconclusive [inhibitor, single point] | –
Cc1ccc(C(=O)CSc2nccn2-c2ccccc2)cc1 | inconclusive [inhibitor, single point] | –
O=C(NC(=S)NCCc1ccc(Cl)cc1)c1ccco1 | inconclusive [inhibitor, single point] | –
CCc1ccccc1-n1c(-c2ccncc2)n[nH]c1=S | inconclusive [inhibitor, full curve, poor fit] | –
Cc1c(C(=O)NNC(=S)Nc2ccc(S(N)(=O)=O)cc2)oc2ccccc12 | inconclusive [inhibitor, partial curve] | –
Cc1cc(C)nc(SC2CCCCC2NS(=O)(=O)c2ccc(Cl)cc2)n1 (centres undefined) | inconclusive [inhibitor, single point] | –
O=C(Cn1cc(SCc2cccc(Cl)c2)c2ccccc21)N1CCOCC1 | – | inactive: -15.9%
